Source: article PMC5836133
This is one part of the list. At the low end of the ranking the order means little.

test system: T1, GST-NbGlk1(82-244); test: protein-binding microarray; settings: NbGlk1 is a Golden2-like transcription factor of Nicotiana benthamiana; high values mean tight binding; most listed sequences are background and not binding sites; double strand, one strand shown;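 further: rank-based score ranging −0.5 to +0.5 with E above 0.45 taken as significant binding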
T1 sequence: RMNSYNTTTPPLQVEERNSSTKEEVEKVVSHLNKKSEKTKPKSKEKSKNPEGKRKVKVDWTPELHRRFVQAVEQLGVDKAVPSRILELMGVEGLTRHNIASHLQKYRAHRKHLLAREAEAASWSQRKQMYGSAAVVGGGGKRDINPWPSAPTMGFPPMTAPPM

Row | Sequence | binding signal
1 | AAATTGGA | 0.0115 E-score
2 | ATGGAGTC | -0.0927 E-score
3 | CACTTAGA | 0.0624 E-score
4 | AGAGCGCT | -0.104 E-score
5 | CACAACAG | -0.0412 E-score
6 | AGCGGCTC | -0.353 E-score
7 | AGTCCAGA | 0.0263 E-score
8 | AGCGAATA | 0.198 E-score
9 | ACCGACGA | -0.0924 E-score
10 | CAATGTAG | -0.0395 E-score
11 | AGACGCCG | -0.263 E-score
12 | ACGCCAAA | -0.0577 E-score
13 | AGGGCAAT | 0.201 E-score
14 | AGATGAAG | -0.123 E-score
15 | ACTAGGAC | -0.0719 E-score
16 | AAACTCGA | 0.0527 E-score
17 | CAACGGCA | -0.136 E-score
18 | ATAGCAGC | -0.15 E-score
19 | AAGTGAAA | 0.0784 E-score
20 | ACGACGAG | -0.27 E-score
21 | AAACCATG | -0.0579 E-score
22 | ATCTTCTC | 0.311 E-score
23 | AGCTCTTG | -0.129 E-score
24 | CACGAAGA | 0.117 E-score
25 | ATCATCAT | -0.0177 E-score

Row | Sequence | binding signal
26 | ATGAGCCG | -0.245 E-score
27 | AGTCACTG | -0.163 E-score
28 | CACACGTA | 0.0494 E-score
29 | ATGGCGTC | -0.275 E-score
30 | ATGTTACG | 0.0238 E-score
31 | CAGACGGA | 0.0222 E-score
32 | ACGACTTA | -0.0238 E-score
33 | ATTGACCA | -0.0678 E-score
34 | AGACTCCC | -0.266 E-score
35 | ATTACCCG | 0.13 E-score
36 | ACCTCTTG | -0.205 E-score
37 | ACTGCCCG | -0.223 E-score
38 | ATGTACAA | 0.00403 E-score
39 | ATTAGTAC | 0.072 E-score
40 | AAATAATG | 0.13 E-score
41 | AGTCGCAA | 0.192 E-score
42 | ACACAAGT | -0.00427 E-score
43 | AAGCGAAA | 0.0889 E-score
44 | ACGTTGAG | -0.0847 E-score
45 | AGTTTTGC | 0.0151 E-score
46 | ATGCTACG | -0.0277 E-score
47 | ACCATGAT | 0.12 E-score
48 | AAACCCAT | -0.245 E-score
49 | AACGTGTG | -0.0474 E-score
50 | ACCCTTTC | -0.338 E-score

Row | Sequence | binding signal
51 | AAATTTGC | 0.224 E-score
52 | AGGCCGAC | -0.245 E-score
53 | ACTGCTTC | -0.156 E-score
54 | AGAGGGAG | -0.168 E-score
55 | AGCCGTAC | -0.0873 E-score
56 | AGCACACG | -0.219 E-score
57 | ATTAGTTG | 0.12 E-score
58 | AGCCATTA | -0.123 E-score
59 | ACAACGTC | -0.115 E-score
60 | ATTGGATA | 0.318 E-score
61 | ACGAATAG | -0.0329 E-score
62 | AGACAGAC | -0.0362 E-score
63 | AGTAGATC | 0.172 E-score
64 | AAGGGCGG | -0.0927 E-score
65 | AAGCTATT | 0.0015 E-score
66 | AGACAACC | -0.222 E-score
67 | AGATGGAT | 0.132 E-score
68 | ATCAAAGC | 0.153 E-score
69 | AAGGCCAA | -0.139 E-score
70 | AACCACTA | -0.106 E-score
71 | AGAGTCAA | -0.147 E-score
72 | AAGGGTCA | -0.151 E-score
73 | AAGCCCTC | -0.236 E-score
74 | ATTGCGTG | 0.388 E-score
75 | AAGCGACA | -0.0121 E-score

Row | Sequence | binding signal
76 | ACGGCAGC | -0.237 E-score
77 | AGGTCCTC | -0.236 E-score
78 | ATACTTCA | 0.0306 E-score
79 | AGGGCACC | -0.343 E-score
80 | AAAACTAT | 0.123 E-score
81 | AGTGTTTC | 0.0393 E-score
82 | ATAAGTTA | 0.0783 E-score
83 | AAAGGCAC | -0.303 E-score
84 | ACTGACTG | -0.167 E-score
85 | AACATGCC | -0.0403 E-score
86 | ATCAACAT | 0.0728 E-score
87 | ACCGAACA | -0.18 E-score
88 | AATAAAGC | 0.0797 E-score
89 | ACGGACAA | 0.045 E-score
90 | CAGAACGC | -0.134 E-score
91 | AAGTACCG | -0.167 E-score
92 | ACCTACCA | -0.0829 E-score
93 | ACAGGCCC | -0.135 E-score
94 | CAGCAGAC | -0.223 E-score
95 | ACTCCACG | -0.136 E-score
96 | AAATGTGT | -0.0339 E-score
97 | ACGCCACG | -0.132 E-score
98 | AGGAACAT | -0.0117 E-score
99 | ACGTTCTG | -0.0995 E-score
100 | AGTCGACG | -0.152 E-score

Row | Sequence | binding signal
101 | AGACCCTG | -0.207 E-score
102 | ACTCGGGA | -0.0561 E-score
103 | AAGCGGTC | -0.171 E-score
104 | ACGGGCTA | -0.0241 E-score
105 | ATGATGGC | -0.103 E-score
106 | AAGTAAAT | 0.144 E-score
107 | ATAGCATG | -0.085 E-score
108 | AGCGCCCG | -0.335 E-score
109 | CAAGCTAG | -0.134 E-score
110 | ACTACGTG | -0.0954 E-score
111 | ACATTTCT | -0.0127 E-score
112 | AGCTACCC | -0.134 E-score
113 | AAAACCCA | -0.0596 E-score
114 | CAACTAAC | 0.0598 E-score
115 | ATAGGTCG | -0.218 E-score
116 | CACTTGGC | -0.116 E-score
117 | AATTCAAA | 0.106 E-score
118 | ACTCACGA | -0.0783 E-score
119 | AAGCACTT | -0.102 E-score
120 | AATACCAA | 0.00993 E-score
121 | ATCGTATG | 0.131 E-score
122 | CAGCAACA | -0.116 E-score
123 | ACTGAAGG | -0.118 E-score
124 | AACGACCC | -0.159 E-score
125 | AGCGGACA | -0.229 E-score

Row | Sequence | binding signal
126 | ACCACTCG | 0.0355 E-score
127 | AGGCTGTA | -0.141 E-score
128 | CACATATG | 0.0704 E-score
129 | ACCGTTGA | -0.0958 E-score
130 | ACATGGTG | -0.118 E-score
131 | AAGAGATC | 0.377 E-score
132 | CACGCTGG | -0.133 E-score
133 | ACCGGGGA | -0.0349 E-score
134 | AGACTGAC | -0.239 E-score
135 | AGACTGGC | -0.066 E-score
136 | CAGAGTGC | -0.114 E-score
137 | AGTGTGCG | -0.112 E-score
138 | ATGGGGCA | -0.055 E-score
139 | AACCACTG | -0.0683 E-score
140 | ACCTATTA | 0.00658 E-score
141 | ATTGCTGA | 0.15 E-score
142 | AGGGTCAT | -0.253 E-score
143 | AATAGACT | -0.0644 E-score
144 | ATCGATAC | 0.245 E-score
145 | ACTTGCAA | -0.0565 E-score
146 | ACTTTACG | 0.154 E-score
147 | AGTTTTCA | -0.00138 E-score
148 | AGCAATCA | 0.321 E-score
149 | ATCCCTTC | 0.0627 E-score
150 | AATTCGCG | 0.178 E-score

Row | Sequence | binding signal
151 | ACGGCAAA | 0.0563 E-score
152 | ATGGTGTC | -0.082 E-score
153 | AAGTATTA | 0.0699 E-score
154 | ACGAGACT | -0.0699 E-score
155 | AGCTTACT | -0.14 E-score
156 | AAGCCGCC | -0.361 E-score
157 | AGCCAGCA | -0.209 E-score
158 | ATGTATTA | 0.091 E-score
159 | ATCAAAAG | 0.0958 E-score
160 | ACTTCACG | -0.25 E-score
161 | AATTCCAC | 0.0356 E-score
162 | AGTATCAC | 0.103 E-score
163 | ACAAGTGC | -0.0689 E-score
164 | ATCTCTAG | 0.294 E-score
165 | AACGGTAC | 0.0846 E-score
166 | AATGGAAC | -0.14 E-score
167 | AATGTTAA | 0.188 E-score
168 | AGGTTACG | -0.0865 E-score
169 | ACCAAGTA | -0.122 E-score
170 | ATGAAAGA | 0.122 E-score
171 | AGAGAACC | -0.0437 E-score
172 | AGTTGATG | -0.153 E-score
173 | ACCAGTGA | -0.216 E-score
174 | ACGCCTGC | -0.274 E-score
175 | AGAGGCCG | -0.104 E-score

Row | Sequence | binding signal
176 | ACACCAGG | -0.199 E-score
177 | AAATATCC | 0.42 E-score
178 | CACGTTAG | -0.0703 E-score
179 | ATTCGAAA | 0.208 E-score
180 | ATCGCTAC | 0.141 E-score
181 | AGTTTAGG | -0.0187 E-score
182 | CACACGAA | -0.053 E-score
183 | AGGGATCG | 0.0562 E-score
184 | AGAAGAGG | -0.191 E-score
185 | AGTGCGTA | 0.013 E-score
186 | CACCATAA | 0.0187 E-score
187 | CAAAGAGA | -0.0263 E-score
188 | AGCCGTCC | -0.132 E-score
189 | ACCGTACA | -0.0535 E-score
190 | CACCTAAA | -0.0298 E-score
191 | AACGGAGA | 0.0976 E-score
192 | AATACCCC | -0.128 E-score
193 | CAGACCTG | -0.0928 E-score
194 | AATCGGTA | 0.257 E-score
195 | AATCGACG | 0.243 E-score
196 | AATTTCTC | 0.167 E-score
197 | CACCTTTA | 0.0328 E-score
198 | ACAGCACG | -0.144 E-score
199 | ACCCGCCC | 0.000507 E-score
200 | ACCTTCCA | -0.113 E-score

Row | Sequence | binding signal
201 | CAATGGAA | -0.0897 E-score
202 | AAGAGGCC | -0.229 E-score
203 | ACAATGCA | 0.0174 E-score
204 | AACTCCGA | -0.14 E-score
205 | ACCGTCGA | -0.188 E-score
206 | ACATAGAA | 0.0384 E-score
207 | AACCAATT | 0.0107 E-score
208 | AATTTGAA | 0.171 E-score
209 | AAGTGATA | 0.172 E-score
210 | ATTTCTCA | 0.248 E-score
211 | AAACCACC | -0.223 E-score
212 | ACGACTCT | -0.043 E-score
213 | AGCTAATA | 0.107 E-score
214 | AACAACGG | -0.0804 E-score
215 | AGGTTAGA | 0.0714 E-score
216 | AAGCAACG | -0.168 E-score
217 | ACTCTCTC | -0.173 E-score
218 | ATTGATCG | 0.036 E-score
219 | CACACAAA | 0.111 E-score
